Results taken from PubChem BioAssay AID1645882 (National Center for Advancing Translational Sciences (NCATS), 2021).
Values joined by “and” are separate entries in the source; they are usually repeats but may differ in a detail not shown here. Equal values may be shown once. Screen size: about 16,000 compounds; about 120 (0.75%) were called active. Another 4% or so got no clear call; they are omitted. The call rests on the fitted dose curve; in most records, active means well fitted inhibition curve with a large enough effect; inconclusive means small, poorly fitted or top-dose-only effect; inactive means no such curve, though single readings can be large or run the other way. This is one part of the list. The source holds several records for some structures; these can differ, active in one and inactive in another.

target: Rap guanine nucleotide exchange factor 3 (Homo sapiens) (UniProt O95398); assay: Validation qHTS for antagonist of cAMP-regulated guanine nucleotide exchange factor 3 (EPAC1); conditions: EPAC1 Rap1B-BODIPY-GDP exchange, fluorescence; series mostly up to 150 µM; activity change, negative = inhibition: at the top concentration; further: nearly all actives have a fitted effect of over 75% in size;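 on activity change, negative = inhibition: plate controls were DMSO for no effect and ATA control for full effect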
Outline: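 Nucleotide exchange followed as fluorescence loss when BODIPY-GDP leaves Rap1B (480 nm excitation, 540 nm emission), read at 5 min intervals over 30 min. Reaction: 100 nM EPAC1, 250 nM RAP1B-BODIPY-GDP, 50 uM GDP; ATA and DMSO define normalization.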
Potency means the concentration at half of the fitted maximal effect.

Chain of UniProt O95398 (O95398 whole entry, looked up): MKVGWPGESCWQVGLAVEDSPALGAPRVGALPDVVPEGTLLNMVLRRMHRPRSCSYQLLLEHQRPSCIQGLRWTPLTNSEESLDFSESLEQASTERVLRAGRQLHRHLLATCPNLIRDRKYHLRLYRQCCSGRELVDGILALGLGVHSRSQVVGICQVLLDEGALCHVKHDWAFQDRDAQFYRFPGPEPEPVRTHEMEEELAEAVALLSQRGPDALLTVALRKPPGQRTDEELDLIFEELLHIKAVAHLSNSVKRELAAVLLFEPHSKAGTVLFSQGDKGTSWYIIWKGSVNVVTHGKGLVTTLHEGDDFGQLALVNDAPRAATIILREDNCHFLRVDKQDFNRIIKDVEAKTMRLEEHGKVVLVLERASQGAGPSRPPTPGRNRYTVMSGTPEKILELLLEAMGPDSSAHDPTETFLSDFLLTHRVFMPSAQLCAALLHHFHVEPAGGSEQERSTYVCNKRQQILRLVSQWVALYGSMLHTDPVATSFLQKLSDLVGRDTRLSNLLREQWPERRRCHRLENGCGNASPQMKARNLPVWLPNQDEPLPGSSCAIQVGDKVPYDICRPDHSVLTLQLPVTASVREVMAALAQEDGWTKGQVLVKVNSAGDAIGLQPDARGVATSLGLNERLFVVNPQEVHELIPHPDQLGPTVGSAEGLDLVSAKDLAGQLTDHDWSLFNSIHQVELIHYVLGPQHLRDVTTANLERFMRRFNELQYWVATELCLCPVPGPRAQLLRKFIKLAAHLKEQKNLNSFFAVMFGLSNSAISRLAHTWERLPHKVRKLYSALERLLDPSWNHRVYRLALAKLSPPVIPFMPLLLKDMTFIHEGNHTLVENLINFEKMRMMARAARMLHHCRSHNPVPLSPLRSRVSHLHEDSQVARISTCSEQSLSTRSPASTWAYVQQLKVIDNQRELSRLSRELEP

SMILES	activity change, negative = inhibition	Potency
CS(=O)(=O)c1ccc(-c2cccc3c2OC(CNC(=O)c2ccnc(Cl)c2)C3)cc1 (centres undefined)	inactive: 10.5%	
COc1cccc(-c2ccc3ncnc(N(C)Cc4ccco4)c3c2)c1	inactive: 1.61%	
COc1cccc(Cn2c(=O)cnc3cnc(Nc4ccccc4)nc32)c1	inactive: 23.1%	
O=C1CC(c2ccc(O)c(O)c2)Oc2cc(O)cc(O)c21 (centres undefined)	inactive: 11.3%	
C=C[C@]1(C)CC(=O)[C@@]2(O)[C@@]3(C)C(O)CCC(C)(C)C3C(O)C(OC(C)=O)[C@@]2(C)O1 (some centres undefined)	inactive: 5.86%	
COc1ccc(C2CNC(=O)C2)cc1OC1CCCC1 (centres undefined)	inactive	
CC(/C=C/c1cccc(Oc2ccc(F)cc2)c1)N(O)C(N)=O (centres undefined)	inactive	
CCN(CC)c1ncnc2c1ncn2[C@@H]1O[C@H](COP(=O)(O)OP(=O)(O)C(Br)(Br)P(=O)(O)O)[C@@H](O)[C@H]1O	inactive: 11.9% [at 75.8 µM]	
O=c1c(O)c(-c2ccc(O)cc2O)oc2cc(O)cc(O)c12	inactive	
CC(C)c1c(C(=O)NCCN2CCOCC2)cnn1-c1nccc(-c2cccs2)n1	inactive: 12.6%	
Cc1cnc(CNc2ccnc(-c3ccccc3C)n2)cn1	inactive: -3.59%	
CCNc1ncc2nc(-c3ccccc3)c(=O)n(Cc3cccc(OC)c3)c2n1	inactive: -1.66%	
COC(=O)c1cc(CNC(=O)c2ccc3ncccc3c2)cc(NC(=O)c2ccccc2Cl)c1	inactive: 2.03%	
COc1ccc(CNc2nc(-c3ccc4c(c3)OCO4)nc3ccccc23)c(OC)c1	inactive: -0.619%	
CC(C)C[C@@H](CO)N1CCN(Cc2cccc(C#N)c2)CCC1=O	inactive: 16.5%	
CCOC(=O)c1c[nH]c2cc(OCC(C)C)c(OCC(C)C)cc2c1=O	inactive: 11.4%	
Cc1noc(C)c1-c1cncnc1N(C)Cc1ccco1	inactive: 0.989%	
CC(=O)C1CCC2C3CCC4=CC(=O)CC[C@@]4(C)C3CC[C@]12C (some centres undefined)	inactive: -1.63%	
Cc1c(C(=O)NCC(C)(C)N2CCOCC2)cnn1-c1ncc2c(n1)-c1ccccc1CCC2	inactive: 9.25%	
Cc1cccc(-c2cnc(C)nc2C2CCCN(C(=O)c3cccc(Cn4cccn4)c3)C2)c1 (centres undefined)	inactive: 11.4%	
CC(=O)c1ccc(F)c(-c2cc(C)cc3c2OC(CNC(=O)c2ccnn2C)C3)c1 (centres undefined)	inactive: -6.99%	
COc1ccc(-c2coc3cc(OC)cc(OC)c3c2=O)cc1	inactive: -7.54%	

SMILES	activity change, negative = inhibition	Potency
O=c1c(O)c(-c2ccccc2)oc2cc(O)ccc12	inactive: 16.4%	
COc1cc(CN2CCCC(c3nc(-c4ccncc4)ncc3-c3ccccc3)C2)ccc1O (centres undefined)	inactive: 21.2%	
NCC1O[C@H](O[C@@H]2C(O)[C@H](O[C@H]3OC(CO)C(O)C(N)C3O)[C@@H](N)C[C@H]2N)[C@@H](N)CC1O (some centres undefined)	inactive: 9.93%	
O=S1(=O)CCO[C@H]2Cc3ccccc3[C@H]2N1Cc1cccc(Cl)c1	inactive: -2.75%	
Cc1c(C(=O)N(C)Cc2nccs2)sc2ncnc(NCC3CCCO3)c12 (centres undefined)	inactive: 13.6%	
Cc1cc(-c2ccnc(-n3ncc(C(=O)NC(C)(C)CO)c3C3CC3)n2)c(C)s1	inactive: 7.57%	
Cn1c(=O)c(-c2ccc(F)cc2)nc2cnc(OCc3ccccc3)nc21	inactive: 20.7%	
CCNc1ncc2nc(-c3ccccc3)c(=O)n(C3CC3)c2n1	inactive: 13.2%	
O=C(O)C#CC(=O)O	inactive: 15.7%	
CN(C)c1ncc2nc(-c3ccc(Cl)cc3)c(=O)n(Cc3ccc(F)cc3)c2n1	inactive: 21.2%	
Cn1ccc2cc(NC(=O)Nc3cccnc3)ccc21	inactive: 2.44%	
COc1ccc(SCCN2CC[C@@H](C)CCC2=O)cc1	inactive: 5.35%	
O=CC(=O)c1ccc(Cl)cc1	inactive: 20.5%	
CN1C(CSCC(F)(F)F)Nc2cc(Cl)c(S(N)(=O)=O)cc2S1(=O)=O (centres undefined)	inactive: 26.5%	
CC(=O)[C@]1(O)Cc2c(O)c3c(c(O)c2[C@@H](O[C@H]2C[C@H](N)[C@H](O)[C@H](C)O2)C1)C(=O)c1ccccc1C3=O	inactive	
CN(C)c1ncc2nc(-c3ccc(F)cc3)c(=O)n(C)c2n1	inactive: 14.1%	
Cc1ccc(CN2C[C@H](Sc3ccccn3)C[C@H]2C(=O)Nc2ccc3sc(C)nc3c2)c(C)c1	inactive: 2.23%	
COc1ccccc1CN1CCCC2(CCN(C(=O)c3cc(C(F)(F)F)cc(C(F)(F)F)c3)CC2)C1	inactive: -8.73%	
OC1(c2ccc3c(c2)CN(Cc2nccs2)CCO3)CCN(c2ccccc2F)CC1	inactive: 2.66%	
COc1ccccc1CN1CCCC2(CCN(C(=O)c3ccco3)CC2)C1	inactive: 9.3%	
CC(=O)OC1CC2C(C)(C)C(O)CC[C@@]2(C)C2CC[C@@]3(C)C(c4ccoc4)OC(=O)C4O[C@@]43[C@]12C (some centres undefined)	inactive: -3.16%	
O=C1c2ccccc2C(=O)c2c1ccc(O)c2O	inactive: 12.3%	

SMILES	activity change, negative = inhibition	Potency
COc1cccc(N2[C@@H](CC(=O)O)c3ccccc3S2(=O)=O)c1	inactive: 15.5%	
Nc1nc(=S)c2[nH]cnc2[nH]1	inactive	
O=c1c2cc(O)c(O)cc2oc2cc(O)c(C3OC(CO)C(O)C(O)C3O)c(O)c12 (centres undefined)	inactive: 22.6%	
O=C(Nc1ccccc1)N1CC[C@@]2(CCCN(C(=O)c3cccc(F)c3)C2)C1	inactive: 17.9%	
O=[N+]([O-])c1ccc2c(c1)C=CC2	inactive: -20.6%	
N=c1c[n+](N2CCOCC2)[n-]o1	inactive: 4.62% [at 75.8 µM]	
O=C(c1cc(C(F)(F)F)cc(C(F)(F)F)c1)N1CCC2(CCN(Cc3ccccc3)CC2)CC1	inactive: 8.89%	
Clc1ccc2nc(-c3ccccc3)[nH]c2c1	inactive: 3.75%	
CN1CCN(CCCN2c3ccccc3Sc3ccc(Cl)cc32)CC1		inactive and active: 112 µM
CCN(c1ccccc1)c1cc(NC)[n+](C)c(C)n1	inactive: 10.3%	
CC(=O)OCC1=C(C(=O)O)N2C(=O)C(NC(=O)CSc3ccncc3)[C@@H]2SC1 (some centres undefined)	inactive: 14.9%	
CCCCNC(=O)[C@@H]1CC=C[C@@H]2CCN(Cc3ccc(Cl)c(Cl)c3)C(=O)[C@@H]21	inactive: 9%	
COc1ccc(CNc2ccnc(-c3ccc(N(C)C)cc3)n2)c(OC)c1	inactive: -8.34%	
COC(=O)c1ccccc1C(=O)NCC1Cc2cc(-c3nc(C)cnc3C)ccc2O1 (centres undefined)	inactive: 14%	
COc1cccc(CNc2ncnc3sc(C(=O)N4CC5CCC4C5)c(C)c23)c1OC (centres undefined)	inactive: 9.06%	
C=C1[C@@H](O)[C@H](CC(C)C)N(Cc2ccccc2Br)S1(=O)=O		active: 89.1 µM
Cc1cc[n+](CC(=O)c2ccccc2)c2ccccc12	inactive: 8.59%	
COc1ccccc1C1CN(CC(=O)NCC2OCCc3ccccc32)Cc2ccccc2O1 (centres undefined)	inactive: 3.73%	
C[C@H](CN1CCCC1)C(=O)c1ccc(C(F)(F)F)cc1	inactive: 32.2%	
CC(=O)N[C@@H](C)C(=O)NCC1Cc2cc(C)cc(-c3cnccn3)c2O1 (some centres undefined)	inactive: -0.941%	
